Measured values from PubChem BioAssay AID624171 (National Center for Advancing Translational Sciences (NCATS), 2012).
Hit rate of the full screen: of about 410,000 compounds, about 1,200 (0.29%) were called active. The shares of active, inactive and inconclusive entries below differ from those in the screen. Calls follow the shape of the dose curve; as a rule, active = well fitted activation curve with a large enough effect; inconclusive = small, poorly fitted or top-dose-only effect; inactive = flat fitted curve, though single readings scatter. Where the call is inconclusive, the potency comes from a doubtful curve fit.

Assay: qHTS of Nrf2 Activators; also: nearly all actives have a fitted effect of over 65% in size; as to activation: % of control where 0% means no effect
Settings: AREc32 ARE-luciferase reporter (MCF7-derived line), luminescence, 24 h; activation: at 46.1 µM (top of the series)
Summary of the method: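 For detection, Steady-Glo was added and plates sat 30 min at RT; before that, AREc32_Fluc cells grown overnight in OPTI-MEM/5% FBS had been treated with 23 nL compound for 24 hr at 37 deg C.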
Potency is read from the fitted curve at half-maximal effect; tags tell the direction and shape of the fitted curve.

SMILES | Potency | activation
COc1cccc(NC(=O)CSc2nc3c(sc4ccccc43)c(=O)n2CCN(C)C)c1 | inconclusive: 17.8 µM [activator, single point] | 
Cc1ccn2cc(-c3cccc([N+](=O)[O-])c3)nc2c1 | inconclusive: 12.6 µM [activator, partial curve, poor fit] | 
CCCc1[nH]nc2c1C(C1CC=CCC1)C(C#N)=C(N)O2 (stereo unspecified) | inconclusive: 17.8 µM [activator, single point] | 
O=C(Nc1nnc([C@@H]2C[C@H](O)[C@@H](CO)O2)s1)c1cccc(C(F)(F)F)c1 | inconclusive: 11.2 µM [activator, partial curve] | 
CN1CCN(CC(=O)N2c3ccccc3Sc3ccccc32)CC1 |  | inactive: -0.763%
COc1cccc2cc(C(=O)OCC(=O)N3CC(C)OC(C)C3)c(=O)oc12 (stereo unspecified) | active: 15.8 µM | 
O=C1OC(/C(=C\Nc2ccccc2)[N+](=O)[O-])c2ccccc21 (stereo unspecified) | inconclusive: 31.6 µM [activator, single point] | 
CCC(C)N=Cc1c(NCc2ccco2)nc2c(C)cccn2c1=O (stereo unspecified) | active: 12.6 µM | 
CC(=O)Oc1c(-c2ccco2)oc2ccccc2c1=O | inconclusive: 1.12 µM [activator, full curve, poor fit] | 
CC(C)C1OC(c2cccc(NC(=O)c3cccs3)c2)OCC1(C)C (stereo unspecified) | inconclusive: 2.82 µM [activator, single point] | 
O=C(NCC1CCCO1)C(=Cc1cccc([N+](=O)[O-])c1)C(=O)NCC1CCCO1 (stereo unspecified) | inconclusive: 3.16 µM [activator, single point] | 
CNc1sc(C(=O)c2ccccc2F)c(N)c1-c1nc2ccccc2s1 | active: 10 µM | 
Cc1ccccc1-c1nnc(-c2cccs2)o1 | active: 11.2 µM | 
CCOc1cc(/C=C2\CN(CC)C/C(=C\c3ccc(O)c(OCC)c3)C2=O)ccc1O | inconclusive: 3.16 µM [activator, single point] | 
CC(C)c1ccc(NC(=O)c2sccc2-n2cccc2)cc1 | inconclusive: 2.24 µM [activator, full curve, poor fit] | 
Clc1cccc(N2CCN(CCNc3nc4ccccc4n4cnnc34)CC2)c1 |  | inactive: -0.811%
COc1ccc2sc3ccccc3c(=O)c2c1OC | active: 11.2 µM | 
Cc1ccoc1C(=O)Nc1cccc2ccccc12 | inconclusive: 11.2 µM [activator, partial curve, poor fit] | 
Nc1nc(CCl)nc(Nc2ccc3ccccc3c2)n1 | inconclusive: 2.51 µM [activator, partial curve, poor fit] | 
O=c1oc2cc(O)ccc2cc1-c1ccccc1 |  | inactive: 7.29%
Cn1ccnc1C(O)c1cc(C(C)(C)C)c(O)c(C(C)(C)C)c1 (stereo unspecified) | inconclusive: 35.5 µM [activator, single point] | 
COc1ccc(-c2cc(=O)[nH][nH]2)cc1 | inconclusive: 17.8 µM [activator, single point] | 
CCOc1ccccc1NC(=O)CSc1nc2c(c(=O)[nH]1)CCC2 |  | inactive: 4.94%

SMILES | Potency | activation
COc1ccc(-c2cc3c(o2)CCCC3OCCN2CCOCC2)cc1 (stereo unspecified) |  | inactive: 7.48%
Cc1cc(/C=C2\NC(=S)NC2=O)c(C)n1-c1cccnc1 |  | inactive: 1.74%
O=C1C2C3C=CC(C4CC34)C2C(=O)N1/N=C/c1ccc([N+](=O)[O-])o1 (stereo unspecified) | inconclusive: 3.16 µM [activator, full curve, poor fit] | 
CSc1nc(NCCN(C)C)c2sc3nc(-c4ccco4)c4c(c3c2n1)CCC4 | inconclusive: 28.2 µM [activator, single point] | 
O=C(/C=C/c1ccc(Cl)c(Cl)c1)n1cccn1 | inconclusive: 31.6 µM [activator, single point] | 
CC(C)c1ccc(NC(=O)Cn2nnc(C(=O)NCc3ccco3)c2N)cc1 |  | inactive: 3.16%
Cc1ccc(N=C2NC(=O)/C(=C/C=C/c3ccco3)S2)cc1 | active: 2.51 µM | 
Fc1cccc2sc(Nc3nnc(-c4ccco4)o3)nc12 | inconclusive: 1.78 µM [activator, partial curve, poor fit] | 
Cc1ccc(O)c(NC(=O)CSc2n[nH]c(-c3ccccc3)n2)c1 |  | inactive: 6.39%
COCOc1ccc(-c2ncc(OC)nc2NC(=O)c2ccsc2)cc1 |  | inactive: -0.488%
CC(NC(=O)c1cc(COc2ccc3ncccc3c2)on1)c1ccc(F)cc1 (stereo unspecified) |  | inactive: -0.159%
Cc1ccc2nc(Cl)c(/C=C/C(=O)c3ccco3)cc2c1 | inconclusive: 11.2 µM [activator, partial curve, poor fit] | 
CN(C)c1nc(N)nc(CSc2ccccn2)n1 | inconclusive: 35.5 µM [activator, single point] | 
CCOc1ccc(NC(=O)CC2C(=O)N(c3ccccc3)C(=O)N2CCc2ccc(OC)cc2)cc1 (stereo unspecified) |  | inactive: 9%
COc1ccc(NC(=O)CSc2c3c(nc4cc(Cl)ccc24)CCCC3)cc1OC | inconclusive: 15.8 µM [activator, single point] | 
COc1cccc(CCOC(=O)c2c(-c3ccsc3)oc3c2C(OC(C)=O)CCC3)c1 (stereo unspecified) | inconclusive: 11.2 µM [activator, partial curve] | 
COc1ccc(/C(N)=N/OC(=O)c2cccc([N+](=O)[O-])c2)cc1 | inconclusive: 7.94 µM [activator, partial curve, poor fit] | 
O=[N+]([O-])c1ccc2oc(-c3ccccc3)nc2c1 | inconclusive: 3.16 µM [activator, full curve, poor fit] | 
O=C1c2cccc3cccc(c23)C(=O)N1CCCN(C(=O)c1cccs1)c1cccc(F)c1 | active: 3.16 µM | 
O=C(N/N=C/C(Cl)=C/c1ccccc1)c1ccco1 | inconclusive: 25.1 µM [activator, single point] | 
O=C(NC(=S)Nc1nc2ccccc2s1)c1cccs1 | inconclusive: 2.51 µM [activator, full curve, poor fit] | 
CC1=C(C)C(C)=C(C#N)C(=C(C#N)C#N)N1 |  | inactive: 0.118%
COc1ccc(C2CC(=O)N(C)c3ccccc3S2)cc1 (stereo unspecified) | inconclusive: 17.8 µM [activator, partial curve, poor fit] | 
